For one experiment, the system named is HSkMC. In words: cytotoxicity call (relative viability < 0.9). The following applies: 10 µM.
A further experiment concerns HepG2. The experiment can be described thus: cytotoxicity call (relative viability < 0.9). The following applies: 10 µM.
Another experiment deals with S. aureus RN4220. The experiment can be described thus: growth inhibition call (relative growth <= 0.2). The following applies: 50 µM.

The other results are listed elsewhere or left out.

Consider `Cc1ccc(S(=O)(=O)Nc2ccc3c(c2)CC(=O)N([C@@H](C)CO)C[C@@H](C)[C@H](CN(C)Cc2ccc(Oc4ccccc4)cc2)O3)cc1`, for which the cytotoxicity call in the experiment on HSkMC and in the experiment on HepG2 was “inactive” in each case. Further, in the experiment with S. aureus RN4220, the growth inhibition call was “inactive”.

For `O=c1[nH]c2ccc(F)cc2[nH]1`, the cytotoxicity call in the experiment on HSkMC and in the experiment on HepG2 was “inactive” in each case. Also, in the experiment with S. aureus RN4220, the growth inhibition call was “inactive”.

Turning to `C[C@@H]1CN([C@H](C)CO)C(=O)c2cc(NC(=O)Nc3ccc4c(c3)OCO4)ccc2O[C@@H](C)CCCCO[C@@H]1CN(C)S(=O)(=O)c1ccc(F)cc1`, the cytotoxicity call in the experiment on HSkMC and in the experiment on HepG2 was “inactive” in each case. Also, the growth inhibition call in the experiment with S. aureus RN4220 is “inactive”.

Consider `O=P(O)(O)C(Cl)(Cl)P(=O)(O)O`, for which the cytotoxicity call in the experiment on HSkMC is “inactive”. Moreover, the cytotoxicity call in the experiment with HepG2 is “active”. Also, the growth inhibition call in the experiment with S. aureus RN4220 was “inactive”.

`C[C@@H]1CN([C@@H](C)CO)C(=O)Cc2cc(NC(=O)Nc3cccc4ccccc34)ccc2O[C@H]1CN(C)CC1CCCCC1`: the cytotoxicity call with HSkMC and in the experiment with HepG2 was “inactive” each time. Also, the growth inhibition call with S. aureus RN4220 was “inactive”.

With `Cc1ccc(S(=O)(=O)N(C)C[C@H]2OCCCC[C@H](C)Oc3ccc(NS(=O)(=O)c4ccc(F)cc4)cc3C(=O)N([C@H](C)CO)C[C@H]2C)cc1`, the cytotoxicity call in the experiment with HSkMC and in the experiment on HepG2 was “inactive” in each case. The growth inhibition call with S. aureus RN4220 is “inactive”.

As to `C[C@H](CO)N1C[C@H](C)[C@H](CN(C)Cc2ccncc2)Oc2c(NC(=O)c3ccncc3)cccc2C1=O`, the cytotoxicity call with HSkMC and in the experiment with HepG2 was “inactive” each time. The growth inhibition call in the experiment with S. aureus RN4220 is “inactive”.

Turning to `C[C@@H]1CCCCO[C@H](CN(C)Cc2ccc3c(c2)OCO3)[C@H](C)CN([C@H](C)CO)C(=O)c2cc(NC(=O)Cc3ccccc3)ccc2O1`, the cytotoxicity call in the experiment with HSkMC and in the experiment on HepG2 was “inactive” each time. In addition, the growth inhibition call in the experiment on S. aureus RN4220 was “inactive”.

On to `C=C1C(=O)O[C@@H]2/C=C(\CO[C@@H]3O[C@H](CO)[C@@H](O)[C@H](O)[C@H]3OC(=O)Cc3ccc(O)cc3)CC/C=C(/C=O)C[C@H](O)[C@@H]12`, for which the cytotoxicity call in the experiment on HSkMC and in the experiment on HepG2 was “inactive” in each case. Further, the growth inhibition call with S. aureus RN4220 was “inactive”.

Consider `C[C@H](CO)N1C[C@H](C)[C@H](CN(C)C(=O)Nc2cccc(C(F)(F)F)c2)OCc2cnnn2CCCC1=O`, for which the cytotoxicity call in the experiment on HSkMC and in the experiment with HepG2 was “inactive” throughout. Further, the growth inhibition call in the experiment on S. aureus RN4220 was “active”.

Consider `COc1ccc(NC(=O)Nc2ccc3c(c2)C(=O)N([C@H](C)CO)C[C@H](C)[C@H](CN(C)Cc2ccc(Cl)c(Cl)c2)O3)cc1`, for which the cytotoxicity call in the experiment on HSkMC was “inactive”. Moreover, the cytotoxicity call in the experiment with HepG2 was “active”. For the same compound, in the experiment on S. aureus RN4220, the growth inhibition call was “inactive”.

For the compound `CO[C@H]1[C@@H](O)[C@H](n2ccc(N)nc2=O)O[C@@H]1CO`, the cytotoxicity call with HSkMC and with HepG2 was “inactive” throughout. Moreover, in the experiment with S. aureus RN4220, the growth inhibition call is “inactive”.

Consider `C[C@H]1CN([C@@H](C)CO)S(=O)(=O)c2ccc(C#CC(C)(C)O)cc2O[C@H]1CN(C)Cc1ccc(F)cc1`, for which the cytotoxicity call in the experiment with HSkMC and with HepG2 was “inactive” throughout. The growth inhibition call in the experiment with S. aureus RN4220 was “inactive”.

With `COc1ccc2c3c(n(c2c1)C)[C@H](CO)N(Cc1ccccc1F)C[C@]13CN(C1)C(=O)C1CCOCC1`, the cytotoxicity call with HSkMC and with HepG2 was “inactive” throughout. The growth inhibition call in the experiment on S. aureus RN4220 was “inactive”.

For `COc1ccc(NC(=O)N(C)C[C@@H]2OCCCC[C@@H](C)Oc3ccc(NC(=O)NC4CCCCC4)cc3C(=O)N([C@@H](C)CO)C[C@@H]2C)cc1`, the cytotoxicity call in the experiment on HSkMC and in the experiment on HepG2 was “inactive” each time. In the experiment on S. aureus RN4220, the growth inhibition call is “inactive”.

For `COc1ccc(S(=O)(=O)Nc2ccc3c(c2)C(=O)N([C@H](C)CO)C[C@H](C)[C@H](CN(C)S(=O)(=O)c2ccc(F)cc2)O3)cc1`, the cytotoxicity call in the experiment with HSkMC and in the experiment with HepG2 was “inactive” each time. Also, the growth inhibition call in the experiment on S. aureus RN4220 was “inactive”.

In the case of `C[C@@H]1CN([C@@H](C)CO)C(=O)c2cc(NS(=O)(=O)c3ccc(F)cc3)ccc2O[C@@H](C)CCCCO[C@H]1CN(C)C(=O)c1ccccc1`, the cytotoxicity call in the experiment with HSkMC and in the experiment with HepG2 was “inactive” each time. For the same compound, in the experiment with S. aureus RN4220, the growth inhibition call was “inactive”.

For `Cc1ccc2nc(-c3ccncc3)cc(-c3ccccc3)c2c1`, the cytotoxicity call with HSkMC and with HepG2 was “inactive” throughout. In the experiment with S. aureus RN4220, the growth inhibition call was “inactive”.

Take `COc1ccc(S(=O)(=O)Nc2ccc3c(c2)C(=O)N([C@@H](C)CO)C[C@@H](C)[C@H](CN(C)Cc2ccc(C(=O)O)cc2)OCCCC[C@@H](C)O3)cc1`: the cytotoxicity call in the experiment on HSkMC and in the experiment with HepG2 was “inactive” throughout. In addition, the growth inhibition call with S. aureus RN4220 was “inactive”.

In the case of `Cc1noc(C)c1NC(=O)N(C)C[C@H]1Oc2c(NC(=O)C3CC3)cccc2C(=O)N([C@@H](C)CO)C[C@@H]1C`, the cytotoxicity call in the experiment with HSkMC and in the experiment with HepG2 was “inactive” in each case. Also, the growth inhibition call in the experiment with S. aureus RN4220 was “inactive”.

Turning to `Cc1noc(C)c1NC(=O)Nc1ccc2c(c1)C(=O)N([C@@H](C)CO)C[C@H](C)[C@H](CN(C)Cc1ccccc1)OCCCC[C@@H](C)O2`, the cytotoxicity call in the experiment with HSkMC and in the experiment on HepG2 was “inactive” throughout. In the experiment on S. aureus RN4220, the growth inhibition call is “inactive”.

As for `C[C@@H]1CN([C@H](C)CO)C(=O)c2cccc(NS(=O)(=O)c3ccc(F)cc3)c2O[C@H]1CN(C)S(=O)(=O)c1cccs1`, the cytotoxicity call with HSkMC and in the experiment with HepG2 was “inactive” in each case. The growth inhibition call in the experiment on S. aureus RN4220 was “inactive”.

Consider `C[C@H](CO)N1C[C@H](C)[C@H](CN(C)Cc2ccncc2)Oc2ccc(NC(=O)c3ccncc3)cc2C1=O`, for which the cytotoxicity call with HSkMC and in the experiment with HepG2 was “inactive” throughout. Moreover, the growth inhibition call with S. aureus RN4220 is “inactive”.

Consider `CC1=NNC(=O)CC1`, for which the cytotoxicity call in the experiment on HSkMC (human skeletal muscle cells) and in the experiment on HepG2 was “inactive” in each case. In addition, the growth inhibition call with S. aureus RN4220 was “inactive”.

`CCS(=O)(=O)N1CC[C@]2(CC1)CN([C@@H](CO)c1[nH]c3cc(ccc3c12)OC)C(=O)Cc1ccccn1`: the cytotoxicity call with HSkMC and in the experiment with HepG2 was “inactive” throughout. Moreover, the growth inhibition call in the experiment on S. aureus RN4220 was “inactive”.

Regarding `C[C@H]1CN([C@@H](C)CO)C(=O)c2cc(NC(=O)Nc3ccc4c(c3)OCO4)ccc2O[C@@H]1CN(C)S(=O)(=O)c1cn(C)cn1`, the cytotoxicity call in the experiment with HSkMC and with HepG2 was “inactive” each time. The growth inhibition call in the experiment with S. aureus RN4220 is “inactive”.

Regarding `COc1ccc(S(=O)(=O)Nc2ccc3c(c2)C(=O)N([C@@H](C)CO)C[C@@H](C)[C@@H](CN(C)C(=O)Nc2c(C)noc2C)O3)cc1`, the cytotoxicity call with HSkMC and in the experiment with HepG2 was “inactive” in each case. Also, in the experiment with S. aureus RN4220, the growth inhibition call was “inactive”.

The record behind these values is the antibiotic and cytotoxicity screens of Wong et al. (2023).
